# No constants are given. Whether binding was seen depends on the method and setting. Binding seen in cells or lysates may run through a third protein. Some results given as binding are weak or reduced against the parent protein; the word gives no strength. For some assays here: Sequences can lack the tags named with a protein.
# Protein sequences, listed by entry. Tags and fused reporters are not part of them. Lines headed by an entry give the natural chain unless they say otherwise; changes in a name come on top.
# UniProt P45481: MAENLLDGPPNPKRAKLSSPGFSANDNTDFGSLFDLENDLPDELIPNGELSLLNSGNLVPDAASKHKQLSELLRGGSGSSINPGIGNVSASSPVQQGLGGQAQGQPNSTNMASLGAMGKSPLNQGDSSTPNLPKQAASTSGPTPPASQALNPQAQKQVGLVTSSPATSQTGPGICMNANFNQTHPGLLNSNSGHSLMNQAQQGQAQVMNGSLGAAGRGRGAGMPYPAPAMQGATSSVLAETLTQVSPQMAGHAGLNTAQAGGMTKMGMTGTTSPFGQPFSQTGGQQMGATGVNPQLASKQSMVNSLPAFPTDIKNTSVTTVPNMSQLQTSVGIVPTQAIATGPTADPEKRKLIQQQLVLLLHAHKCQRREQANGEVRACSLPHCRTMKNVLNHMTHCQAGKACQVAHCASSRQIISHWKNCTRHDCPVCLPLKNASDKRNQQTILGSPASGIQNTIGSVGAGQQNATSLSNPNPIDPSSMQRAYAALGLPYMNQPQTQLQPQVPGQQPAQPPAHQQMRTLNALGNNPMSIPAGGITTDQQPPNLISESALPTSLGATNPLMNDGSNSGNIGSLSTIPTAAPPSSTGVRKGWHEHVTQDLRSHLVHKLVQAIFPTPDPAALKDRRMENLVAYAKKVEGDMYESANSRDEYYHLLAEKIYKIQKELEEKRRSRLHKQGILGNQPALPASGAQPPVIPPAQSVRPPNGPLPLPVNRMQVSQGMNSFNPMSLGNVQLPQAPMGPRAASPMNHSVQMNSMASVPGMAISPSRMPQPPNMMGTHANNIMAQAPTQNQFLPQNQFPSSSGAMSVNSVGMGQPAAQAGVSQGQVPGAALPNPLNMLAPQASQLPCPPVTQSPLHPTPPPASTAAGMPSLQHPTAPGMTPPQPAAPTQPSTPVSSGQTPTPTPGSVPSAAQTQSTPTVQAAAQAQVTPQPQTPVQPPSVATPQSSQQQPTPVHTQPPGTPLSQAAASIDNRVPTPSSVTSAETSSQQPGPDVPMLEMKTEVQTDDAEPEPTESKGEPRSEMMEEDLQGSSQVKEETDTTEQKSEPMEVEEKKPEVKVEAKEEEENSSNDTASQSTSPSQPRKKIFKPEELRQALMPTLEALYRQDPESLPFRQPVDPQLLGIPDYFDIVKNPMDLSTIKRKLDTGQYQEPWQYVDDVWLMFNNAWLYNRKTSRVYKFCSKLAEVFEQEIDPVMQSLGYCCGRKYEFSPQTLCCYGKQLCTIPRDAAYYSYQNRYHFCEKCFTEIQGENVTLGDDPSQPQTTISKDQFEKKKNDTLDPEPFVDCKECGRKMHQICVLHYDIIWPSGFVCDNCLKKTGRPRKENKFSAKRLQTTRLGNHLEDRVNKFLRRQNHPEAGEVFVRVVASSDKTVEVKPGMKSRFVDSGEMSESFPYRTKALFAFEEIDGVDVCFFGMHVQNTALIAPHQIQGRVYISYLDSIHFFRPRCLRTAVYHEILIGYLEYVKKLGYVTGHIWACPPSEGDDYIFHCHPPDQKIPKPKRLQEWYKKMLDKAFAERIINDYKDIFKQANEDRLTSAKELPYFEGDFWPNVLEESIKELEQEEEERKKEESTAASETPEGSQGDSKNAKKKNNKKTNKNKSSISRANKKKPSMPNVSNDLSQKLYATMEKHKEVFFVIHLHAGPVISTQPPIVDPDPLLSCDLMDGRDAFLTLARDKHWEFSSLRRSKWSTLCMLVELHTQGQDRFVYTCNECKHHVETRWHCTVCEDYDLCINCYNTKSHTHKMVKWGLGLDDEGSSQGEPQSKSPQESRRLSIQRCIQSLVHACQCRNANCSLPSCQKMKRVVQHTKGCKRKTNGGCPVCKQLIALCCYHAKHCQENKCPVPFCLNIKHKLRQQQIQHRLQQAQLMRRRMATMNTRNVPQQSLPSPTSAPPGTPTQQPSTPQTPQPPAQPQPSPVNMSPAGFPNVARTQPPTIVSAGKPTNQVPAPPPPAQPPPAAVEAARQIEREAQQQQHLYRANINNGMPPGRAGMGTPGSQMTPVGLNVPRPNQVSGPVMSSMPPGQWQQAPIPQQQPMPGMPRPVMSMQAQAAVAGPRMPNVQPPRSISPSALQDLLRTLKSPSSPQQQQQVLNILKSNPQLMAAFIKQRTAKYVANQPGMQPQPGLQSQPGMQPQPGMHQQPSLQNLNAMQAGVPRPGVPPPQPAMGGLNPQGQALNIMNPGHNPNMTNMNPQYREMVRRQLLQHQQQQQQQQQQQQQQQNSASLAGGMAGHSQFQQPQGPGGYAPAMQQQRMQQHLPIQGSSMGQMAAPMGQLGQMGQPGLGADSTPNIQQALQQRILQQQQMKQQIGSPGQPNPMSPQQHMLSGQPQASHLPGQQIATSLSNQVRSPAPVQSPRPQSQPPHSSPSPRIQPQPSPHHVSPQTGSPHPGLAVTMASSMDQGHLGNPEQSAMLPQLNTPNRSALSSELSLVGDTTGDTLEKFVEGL
# Legend:
# [1] = target: myc-tagged full-length MIER1β expressed in HEK293 cells (human) (UniProt Q8N108); assay: co-IP; HEK293 cells co-transfected with flag-CBP(1094–2441) and myc-MIER1β; anti-myc immunoprecipitation, Western blot with anti-flag
# [2] = target: T1, GST-MIER1(1–283) fusion protein, N-terminal half of MIER1β (human) (UniProt Q8N108); assay: pull-down; GST pull-down: 0.35 μg of GST or equimolar amounts of GST fusion proteins with 100,000 cpm of 35S-labelled in vitro translation products; as in ref. 7; only the target purified
# T1 sequence: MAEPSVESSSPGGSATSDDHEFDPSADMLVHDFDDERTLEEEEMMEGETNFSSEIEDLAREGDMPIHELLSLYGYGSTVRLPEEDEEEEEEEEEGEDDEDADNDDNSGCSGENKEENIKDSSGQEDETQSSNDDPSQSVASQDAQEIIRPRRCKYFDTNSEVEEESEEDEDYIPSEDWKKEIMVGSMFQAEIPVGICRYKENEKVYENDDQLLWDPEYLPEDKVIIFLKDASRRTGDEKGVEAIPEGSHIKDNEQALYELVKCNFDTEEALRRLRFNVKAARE
# [3] = target: GST-MIER1β fusion protein (full-length) (human) (UniProt Q8N108); assay: as above
Substance,binding [1],binding [2],binding [3]
flag-tagged CBP(1094–2441) expressed in HEK293 cells (from UniProt P45481 1094-2441) (domain or fragment),binds,–,–
"CBP(1094–2441), in vitro translated, 35S-labelled (from UniProt P45481 1094-2441) (domain or fragment)",–,binds,binds
"CBP(1–1096), in vitro translated, 35S-labelled (from UniProt P45481 1-1096) (domain or fragment)",–,–,no binding (tested: equimolar to 0.35 μg GST)
"full-length mouse CBP (Creb-binding protein), in vitro translated, 35S-labelled (from UniProt P45481 1-2441)",–,–,binds
